Among all 310,000 compounds or so, about 2,200 (0.71%) showed an effect of 50% or more. The effect is printed as a negative number. The list shows a part of the results.
target: human ether-à-go-go-related gene (hERG) potassium channel (human, UniProt Q12809); assay: primary screen, population patch clamp on CHO cells stably expressing hERG
Sequence (Q12809 whole entry, looked up): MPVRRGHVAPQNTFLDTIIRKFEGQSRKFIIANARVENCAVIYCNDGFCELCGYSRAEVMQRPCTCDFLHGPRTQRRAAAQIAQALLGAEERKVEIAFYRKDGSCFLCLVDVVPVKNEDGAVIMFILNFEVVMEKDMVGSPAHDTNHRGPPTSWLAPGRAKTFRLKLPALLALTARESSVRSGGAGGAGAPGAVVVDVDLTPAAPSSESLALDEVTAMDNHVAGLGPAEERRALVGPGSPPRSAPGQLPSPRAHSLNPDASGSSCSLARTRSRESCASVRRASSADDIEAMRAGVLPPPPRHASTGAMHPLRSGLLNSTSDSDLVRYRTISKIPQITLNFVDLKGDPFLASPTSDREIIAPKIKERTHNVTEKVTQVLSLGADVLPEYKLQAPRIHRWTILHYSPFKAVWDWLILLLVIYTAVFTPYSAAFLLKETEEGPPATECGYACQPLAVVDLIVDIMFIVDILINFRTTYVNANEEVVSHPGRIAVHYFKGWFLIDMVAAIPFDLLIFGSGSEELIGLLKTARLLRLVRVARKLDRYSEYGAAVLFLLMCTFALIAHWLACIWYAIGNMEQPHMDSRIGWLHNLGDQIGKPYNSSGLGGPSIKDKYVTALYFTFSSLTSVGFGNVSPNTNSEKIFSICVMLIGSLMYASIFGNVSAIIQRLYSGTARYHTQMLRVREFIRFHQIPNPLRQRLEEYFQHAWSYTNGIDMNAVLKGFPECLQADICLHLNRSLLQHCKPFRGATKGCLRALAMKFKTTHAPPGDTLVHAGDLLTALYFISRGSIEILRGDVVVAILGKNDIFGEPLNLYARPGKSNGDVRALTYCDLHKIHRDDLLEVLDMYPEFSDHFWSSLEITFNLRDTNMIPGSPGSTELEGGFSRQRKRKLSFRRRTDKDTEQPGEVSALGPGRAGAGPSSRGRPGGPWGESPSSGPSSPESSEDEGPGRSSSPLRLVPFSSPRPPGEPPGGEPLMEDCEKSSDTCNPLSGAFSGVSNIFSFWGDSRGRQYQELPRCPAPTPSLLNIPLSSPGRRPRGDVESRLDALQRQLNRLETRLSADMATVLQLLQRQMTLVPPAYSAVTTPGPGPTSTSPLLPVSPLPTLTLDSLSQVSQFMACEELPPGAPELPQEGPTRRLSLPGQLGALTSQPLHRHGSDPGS

SMILES	hERG current change (%, negative = inhibition) at 1uM [%]
O=C(O)CNS(=O)(=O)/C=C/c1ccccc1	10.2
Cl.ClCCN1C2=NCCCN2c2ccccc21	-1.36
Cc1cccc(NC(=O)CCC(=O)N/N=C/c2ccncc2)c1	11.9
C=CCN1C=C2C(=O)C(C)(OC(=O)C3CCCC3)C(=O)C(c3ccccc3)=C2C=C1CCCC(=O)OC (stereo not shown)	10.8
COc1ccc(CSc2nnc(CNS(C)(=O)=O)o2)cc1	13.6
Cc1ccc(OCC(=O)N/N=C/c2c[nH]c3ccccc23)c([N+](=O)[O-])c1	1.03
COC(=O)c1cc(NC(C)=O)ccc1N1CCOCC1	10.9
Clc1ccc(-c2nnc(NCc3ccccc3)c3ccccc23)cc1	4.55
NS(=O)(=O)c1ccc(NC(=S)NNC(=O)CCC(=O)Nc2ccccc2Cl)cc1	-8.56
Cc1nn(C)cc1CN(C)S(=O)(=O)c1cccc([N+](=O)[O-])c1	13.5
CCN(CC)CCCN1C(=O)C(=O)/C(=C(/O)c2ccc(Cl)cc2)C1c1ccccn1 (stereo not shown)	5.86
CCOC(=O)c1sc(NN=C(C(=O)OC)C(=O)OC)c(C(=O)OCC)c1C	7.55
CCCc1cc(-n2ccnc2)n2c(nc3ccccc32)c1C#N	-1.04
COc1ccccc1C(=O)CSc1nccn1C	-1.6
O=C(C1CC1)N1CCN=C1SCc1cccc(C(F)(F)F)c1	8.63
Nc1c(N2CCCCC2)c(=O)[nH]c(=O)n1-c1ccccc1	9.43
COC(=O)c1[nH]c2ccccc2c1NC(=O)CN1CCCc2ccccc21	-7.78
Cn1c(SCC(=O)NC(=O)NCc2ccccc2)nnc1C(F)(F)F	0.965
Cc1nc(C(F)(F)F)nc(Nc2ccc(N=Nc3ccccc3)cc2)c1C#N	6.04
Cc1ccc(CNC(=O)COC(=O)c2ccc(S(=O)(=O)NCc3ccco3)cc2)cc1	9.7
CCc1ccc(-c2cc(C(=O)NCc3ccco3)c3ccccc3n2)s1	2.59
COc1ccccc1NC(=O)COc1coc(CN2CCN(c3ccccc3)CC2)cc1=O	-3.77

SMILES	hERG current change (%, negative = inhibition) at 1uM [%]
COc1ccc(OC)c(-c2csc(NC(=O)C3=NN(c4ccccc4)C(=O)CC3)n2)c1	1.94
Cc1cc(C)nc(SCCn2c(N(C)Cc3ccccc3)nc3c2c(=O)n(C)c(=O)n3C)n1	4.27
CNS(=O)(=O)c1cccc(C(=O)NNC(=O)CN(C)S(=O)(=O)c2ccc(Cl)cc2)c1	13.8
Cc1cccc(NC(=O)c2ccc(NCCc3ccccc3)c([N+](=O)[O-])c2)c1	9.98
CCCCSC1=N/C(=C/c2ccsc2)C(=O)N1c1ccccc1	17.1
CCCCNc1c(-c2ccc(-c3ccc(C(C)=O)cc3)c(OC)c2)nc2cnccn12.O=C(O)C(F)(F)F	3.76
CCS(=O)(=O)c1ccc2oc(SCC(=O)NCCC3=CCCCC3)nc2c1	-20.6
COc1ccc(-c2noc(N3CCCC(C(=O)Nc4ccccc4F)C3)n2)cc1 (stereo not shown)	10.3
CC1CCN(S(=O)(=O)c2cc(C(=O)N3CCN(c4ncccn4)CC3)ccc2Br)CC1	-22.6
CCN1C(=O)C(CC(=O)Nc2c(C)cccc2C)SC1=Nc1ccc(S(N)(=O)=O)cc1 (stereo not shown)	15.5
O=C(NCc1cccnc1)c1ccc(-c2cccc(Cl)c2Cl)o1	5.38
CCCCC(CC)COP(=O)(OCC(CC)CCCC)OCC(CC)CCCC (stereo not shown)	6.51
COc1ccc(C(=O)NC2CCCCCCC2)cc1OC	9.08
Cn1cnnc1SCC(=O)Nc1ccc2nc(SCc3cccc4ccccc34)sc2c1	6.71
Cc1ccc(-c2nnn(CC(=O)Nc3cccc4c3CCCC4)n2)o1	7.41
O=C1ON=C(c2ccccc2)/C1=C/c1ccc(O)c(O)c1	15.5
COc1ccc(C(=O)N2CCc3cc(OC)c(OC)cc3C2c2ccc(OC)c(OC)c2)cc1 (stereo not shown)	1.47
COc1ccc(-c2nnn(CCc3nn[nH]n3)n2)cc1	10.2
COc1ccccc1NC(=O)N(CCN(C)C)Cc1cc2cc(C)ccc2[nH]c1=O	-29.9
O=C(CSc1ncccc1C(=O)O)NCCC1=CCCCC1	-1.03
COc1cc(/C=N/NC(=O)c2ccccn2)ccc1OC(=O)c1cccs1	-10.1
Cc1nnc(N(C)C(=O)c2ccncc2)s1	12

SMILES	hERG current change (%, negative = inhibition) at 1uM [%]
COc1ccc(CCNC(=O)CN(c2cc([N+](=O)[O-])ccc2OC)S(C)(=O)=O)cc1	16.9
Cc1ccnc2nc(C(=O)Nc3ccc(N4CCOCC4)cc3)nn12	12.4
COc1ccc(N2COC3c4cccc5cccc(c45)C32)cc1 (stereo not shown)	13.3
CNC(=S)NNC(=O)c1cc(-c2cccnc2)nc2ccccc12	10
Cc1ccc(S(=O)(=O)C2C(=O)N(C)C3(C)CC2c2ccccc2O3)cc1 (stereo not shown)	16.9
O=C(/C=C/Nc1ccc(S(=O)(=O)Nc2ncccn2)cc1)c1ccc2ccccc2c1	8.92
S=C(NCCc1ccccc1)NCCc1ccccc1	15
CCN1CCN(Cc2ccc(NC(=O)Nc3ccccc3)cc2)CC1	4.53
COc1cccc(-n2c(Cc3cc(=O)[nH]c(=O)[nH]3)nnc2SCC(=O)N2CCCCCC2)c1	3.73
c1ccc(CCNc2ncnc3ccccc23)cc1	-19.1
Cc1ccc(S(=O)(=O)NCC(=O)NCc2cc(=O)n(C)c(=O)n2C)cc1C	14.6
Cc1cccc(OCC(=O)Nc2ccc3c(c2)OCO3)c1C	12.7
COc1ccc(CNc2nc3ccccc3n2CCN2CCCCC2)cc1	-15.8
CC(C)(C)N(NS(=O)(=O)c1ccc(F)cc1)c1ccccc1	13.2
Cc1ccc(CC2CC(=O)N(c3cc(C)ccc3C)C2=O)cc1 (stereo not shown)	7.26
Cc1c(O)ccc(/C(Cc2ccc3ccccc3n2)=N\O)c1O	7.2
CCCCS(=O)(=O)C(=C1Nc2ccccc2N1)S(=O)(=O)CCCC	9.64
O=C(Nc1ccc(C(F)(F)F)cc1)C1CC(=O)N(c2ccc3c(c2)OCCO3)C1 (stereo not shown)	4.74
Fc1cccc(CSc2nnc3ccc(-c4ccncc4)nn23)c1	-23.8
CC1CCCCN1S(=O)(=O)c1ccc([N+](=O)[O-])cc1 (stereo not shown)	11.8
O=C(Nc1ccc(S(=O)(=O)NC2CCCCC2)cc1)c1ccco1	5.93
O=C1CC(c2ccc(O)cc2)Oc2cc(O)cc(O)c21 (stereo not shown)	10.9

SMILES	hERG current change (%, negative = inhibition) at 1uM [%]
COc1cc2cc(CN(CCN3CCCC3)C(=O)Nc3ccccc3Cl)c(=O)[nH]c2cc1OC	6.72
O=C(O)COc1ccc(-c2nnn(CC(=O)O)n2)cc1	14.1
Cc1ccc(C)c(Nc2ccc3nonc3c2[N+](=O)[O-])c1	6.69
CNc1oc(/C=C/c2ccccc2)nc1C#N	7.25
CCCCOc1ccc(C(=O)O)cc1	10.4
CC1(C)Oc2ccc(C(=O)NC3CCCC3)cc2N(CC(=O)N2CCOCC2)C1=O	8.93
CC(C)N1CCN(Cc2coc3ccccc3c2=O)CC1CCO (stereo not shown)	16.3
C[C@H](CCC(=O)NCC(=O)O)[C@H]1CC[C@H]2C3[C@H](O)C[C@@H]4C[C@H](O)CC[C@]4(C)[C@H]3C[C@H](O)[C@]12C (stereo partly shown)	14.5
CCSc1ccccc1C(=O)Nc1nncs1	8.79
COC(=O)Cn1c(=O)c(=O)n(CC(=O)OC)c2ccccc21	18.8
O=C(CCS(=O)(=O)c1cccs1)N1CCCC1	-2
Cc1ccsc1C(=O)OCC(=O)Nc1c(Cl)cccc1C(F)(F)F	8.26
CC(=O)N1Cc2ccccc2CC1C(=O)NCc1ccccc1F (stereo not shown)	-0.311
O=C(Nc1ccc2c(c1)nc1n2CCOC1)c1ccco1	7.91
O=C(CCCCCNC(=O)N1CCn2c1nc1ccccc12)N[C@@H](Cc1ccccc1)C(=O)O	-9.39
Cc1ccccc1CN1CCN(S(=O)(=O)c2cccc3nsnc23)CC1	11.9
CC(=O)Cc1cc(O)c2ccccc2c1OC(=O)c1ccccc1	18.8
CC(C)Cn1c(=S)[nH]c2cc(C(=O)NCc3ccccc3F)ccc2c1=O	-6.14
CCCCSc1nc(C)c(CC(=O)OC)c(=O)[nH]1	13.1
COc1ccccc1NC(=S)N1CCN(C(c2ccccc2)c2ccccc2)CC1	3.9
CCS(=O)(=O)c1nc(S(=O)(=O)c2ccc(C)cc2)c(N2CC(C)CC(C)C2)s1 (stereo not shown)	13.2
COc1ccc(N2CCCC2)c(NC(=O)COc2ccccc2Cl)c1	7.23

From article PMC4336329 (PLoS ONE, 2015)
